Test results reported in PubChem BioAssay AID652104 (National Center for Advancing Translational Sciences (NCATS), 2013).
Values joined by “and” are separate entries in the source; they are usually repeats but may differ in a detail not shown here. Identical values can stand only once. About 7,200 (1.8%) of roughly 410,000 compounds were called active. Inconclusive results, whose numbers are uncertain, are shown with a selection of clear calls. Calls come from the whole dose curve; as a rule, active = well fitted activation curve with a large enough effect; inconclusive = small, poorly fitted or top-dose-only effect, or another doubt; inactive = no such curve, though single readings can be large or run the other way. Where the call is inconclusive, the potency comes from a doubtful curve fit.

Assay: qHTS of TDP-43 Inhibitors; note: nearly all actives have a fitted effect of over 50% in size; for growth rescue (activation): % of control where 0% means no effect
Conditions: TDP-43 expressing yeast growth rescue, BacTiter-Glo, 24 h; growth rescue (activation): at 46.1 µM (top of the series) unless noted
Summary of the method: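 Luminescence from BacTiter-Glo reports growth of TDP-43-expressing yeast after 24 hr at 30 deg C with compound. Cells were raffinose-pregrown to mid-log, then seeded in galactose medium at OD600=0.02.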
Potency is the fitted concentration of half-maximal effect; tags give direction and shape of the fitted curve.

| Compound | Potency | growth rescue (activation) |
| --- | --- | --- |
| CCc1nnc(NC(=O)CSc2nc3c([nH]c4ccccc43)c(=O)n2-c2cc(C)cc(C)c2)s1 | inconclusive: 2.24 µM [activator, partial curve] | – |
| O=C1CC(c2nc3ccccc3n2CCCCOc2ccccc2)CN1c1ccccc1Cl (stereo not drawn) | inconclusive: 35.5 µM [activator, single point] | – |
| COc1ccccc1CNC(=O)C(Cc1ccccc1)NS(=O)(=O)c1ccc2c(c1)oc(=O)n2C (stereo not drawn) | inactive | – |
| O=C(Cc1c[nH]c2ccccc12)NCc1ccc(Cl)cc1Cl | inconclusive: 12.6 µM [activator, single point] | – |
| O=C(CN1CCSCC1)N/N=C/c1ccccc1F | inactive | – |
| COc1ccc(N)cc1C#N | inactive | – |
| COc1ccc(C2=CC3=C(Br)C(=O)C(C)(OC(=O)c4ccco4)C(=O)C3=CO2)cc1 (stereo not drawn) | – | inconclusive: -93.3% [activator] |
| O=C(COC(=O)C1(c2cccc(F)c2)CCCC1)NCc1ccc2c(c1)OCO2 | inconclusive: 15.8 µM [activator, single point] | – |
| Cc1nn(Cc2noc(C(=O)NCc3ccc(F)cc3)n2)c(C)c1Br | – | inconclusive: 32.4% [activator] [at 9.22 µM] |
| COc1ccc(N2CCN(C(=O)COC(=O)/C=C/c3ccc(OC(F)F)cc3)CC2)cc1 | inconclusive: 1 µM [activator, full curve, poor fit] | – |
| CCCC(=O)C1CCN(Cc2ccccc2)CC1 | inconclusive: 3.55 µM [activator, single point] | – |
| CCCc1cc(=O)oc2cc(Oc3ncccn3)ccc12 | inconclusive: 25.1 µM [activator, partial curve] | – |
| CCCOC(=O)c1ccc(NC(=O)c2cc(OC)c(OC)c(OC)c2Br)cc1 | active: 12.6 µM | – |
| O=C(NCc1ccc2c(c1)OCO2)c1ccc(COc2cccc(Cl)c2)o1 | active: 14.1 µM | – |
| Clc1ccc2nc(-c3ccc(Br)s3)cn2c1 | inactive | – |
| O=C1[C@@H]2C(c3cccnc3)=NO[C@@H]2C(=O)N1c1ccc2ccccc2c1 | – | inconclusive: -91.9% [activator] |
| C[C@@H]1CCCCCCCCC(=O)OCCN(C(=O)OC(C)(C)C)[C@H](C)CCCCCCCCC(=O)OCCN(C(=O)OC(C)(C)C)[C@H](C)CCCCCCCCC(=O)OCCN(C(=O)OC(C)(C)C)[C@H](C)CCCCCCCCC(=O)OCCN1C(=O)OC(C)(C)C | inactive | – |
| O=C1C(=O)c2ccccc2C(O)=C1C1CCC(c2ccc(Cl)cc2)CC1 (stereo not drawn) | inconclusive: 35.5 µM [activator, single point] | – |
| CCn1c2ccccc2c2cc(NC(=O)c3cc(OC)c(OC)c(OC)c3)ccc21 | inconclusive: 12.6 µM [activator, partial curve, poor fit] | – |
| Cc1ccc(S(=O)(=O)N(C)C)cc1NC(=O)CSc1nnc(C2CC2)n1C1CC1 | inconclusive: 35.5 µM [activator, partial curve] | – |
| CCOc1ccc(Cn2c(=O)oc3ccccc32)cc1 | inconclusive: 2.82 µM [activator, full curve, poor fit] and inconclusive: 10 µM [activator, partial curve] | – |
| Cc1ccc(NC(=O)c2ccc3nc[nH]c3c2)c(O)c1 | inactive | – |

| Compound | Potency | growth rescue (activation) |
| --- | --- | --- |
| CCN(c1ccccc1)S(=O)(=O)c1nnc(NC(=O)COc2ccc(OC)cc2)s1 | inactive | – |
| CC(=O)OCC#CCSc1nnc(-c2cccc(Br)c2)o1 | inconclusive: 35.5 µM [activator, partial curve, poor fit] | – |
| CC1Sc2ccc(S(=O)(=O)N3CCN(c4ccccc4)CC3)cc2NC1=O (stereo not drawn) | inactive | – |
| CC(Oc1ccc(Br)cc1)c1nc2c3ccccc3nc(=S)n2[nH]1 (stereo not drawn) | inactive | – |
| COCCNC(=O)C1CCN(S(=O)(=O)c2ccc3c(c2)CCCN3C(C)=O)CC1 | inactive | – |
| CCOC(=O)c1cnc2c(c(C)nn2C)c1Oc1ccc(Cl)cc1 | inconclusive: 14.1 µM [activator, single point] | – |
| Cc1ccc(N2CCN(C3=NC(=O)C(Cc4ccccc4)S3)CC2)cc1 (stereo not drawn) | inconclusive: 11.2 µM [activator, partial curve] | – |
| CC(C)c1ccc(C(=O)CSc2n[nH]c(-c3ccncc3)n2)cc1 | active: 35.5 µM | – |
| COc1cccc2c1C(=O)c1c(O)c3c(c(O)c1C2=O)CC(O)(C(=O)CO)CC3OC1CC(N(C)C)C(O)C(C)O1 (stereo not drawn) | – | inconclusive: -90.8% [activator] |
| COC(=O)c1c(N2C(=O)CC(Sc3ccccc3C(=O)O)C2=O)sc(C)c1C (stereo not drawn) | inconclusive: 1.58 µM [activator, partial curve] | – |
| COc1ccc(CSc2nc3ncccc3[nH]2)cc1 | inconclusive: 2 µM [activator, partial curve] | – |
| CCCCC1=CC2=C(c3ccco3)C(=O)C(C)(OC(=O)c3ccc(OC)cc3)C(=O)C2=CN1CC1CC1 (stereo not drawn) | inactive | – |
| CCOc1ccc(N(C)S(=O)(=O)c2ccc3c(c2)C(C)(C)C(=O)N3C)cc1 | inconclusive: 3.98 µM [activator, partial curve] | – |
| CCCCCCC1C(C#N)=C(N)OC2=C1C(=O)CC(C)(C)C2 (stereo not drawn) | inconclusive: 12.6 µM [activator, partial curve] | – |
| CN(C)S(=O)(=O)Oc1ccc(C(=O)Nc2cccc(C(F)(F)F)c2)cc1 | inconclusive: 3.16 µM [activator, single point] | – |
| O=C(CCSc1ccc(Br)cc1)c1ccc(O)cc1 | active: 11.2 µM | – |
| COc1ccc(C(=O)N2CCC(C(=O)c3c(C)cc(C)cc3C)CC2)cc1 | inconclusive: 35.5 µM [activator, single point] | – |
| O=c1c2sc(-c3ccccc3)cc2nc2n1CCC2 | active: 12.6 µM | – |
| CCOc1ccc(NC(=O)c2cn(-c3ccc(OCC)cc3)c(=O)c3cc(OC)c(OC)cc23)cc1 | inconclusive: 25.1 µM [activator, partial curve, poor fit] | – |
| CCCc1cc(N2CCN(c3cc(Cl)ccc3C)CC2)n2cnnc2n1 | inconclusive: 14.1 µM [activator, single point] | – |
| COc1ccc(CC2S/C(=N/N=C/c3ccccc3O)NC2=O)cc1 (stereo not drawn) | inconclusive: 1.12 µM [activator, full curve] | – |
